Source: PMC10668032
This is one part of the list. At the low end of the ranking the order means little.

These sequences were tested against SIX1-Q177R homeodomain (UniProt Q15475) (assay: universal protein binding microarray). Conditions: Universal all-10-mer PBM (8x60K, AMADID 030236), 300 nM GST-tagged protein, Alexa Fluor 488 anti-GST; buffer, salt, pH and temperature not stated; high values mean tight binding; most listed sequences are background and not binding sites; double strand, one strand shown.
In the case of AGCGGCCT, the binding signal is reported as -0.0633 E-score.
In the case of CCCGCCCG, the binding signal is reported as 0.233 E-score.
In the case of ACATGCCC, the binding signal is reported as -0.175 E-score.
For ACCAGCCG, the binding signal was -0.0595 E-score.
CTGCATTC was tested, and the binding signal was -0.168 E-score.
For CGCGAGCG, the binding signal was 0.0735 E-score.
GCCAGCCA was tested, and the binding signal was -0.143 E-score.
TCTGGGAA gave a binding signal of -0.231 E-score.
For CAGCGGGA, the binding signal was -0.204 E-score.
CTAACGCC showed a binding signal of 0.0852 E-score.
ATTAACAG showed a binding signal of -0.274 E-score.
Work on AGGCAACA yielded a binding signal of 0.0292 E-score.
In the case of GTGTGCTA, the binding signal is reported as 0.321 E-score.
GCCAACGC showed a binding signal of -0.0751 E-score.
CTTTATCA showed a binding signal of -0.162 E-score.
Sequence GATGCCCA has a binding signal of -0.254 E-score.
GCCTGTTA showed a binding signal of -0.0357 E-score.
Sequence GGACAGTA has a binding signal of -0.0361 E-score.
ACAAATCT showed a binding signal of -0.161 E-score.
In the case of ACTACCAA, the binding signal is reported as 0.0147 E-score.
Sequence ATTCACTG has a binding signal of -0.0924 E-score.
TCTGGTCA was tested, and the binding signal was 0.0989 E-score.
AATCCGTG showed a binding signal of 0.17 E-score.
For CTTGGGCA, the binding signal was -0.105 E-score.
GGGCCGAC gave a binding signal of -0.0882 E-score.
TAATCTGA showed a binding signal of -0.0141 E-score.
AAAAATTA was tested, and the binding signal was -0.198 E-score.
GAAAACTA was tested, and the binding signal was -0.108 E-score.
CATCAGGG was tested, and the binding signal was 0.0127 E-score.
In the case of GCCTTCTA, the binding signal is reported as -0.229 E-score.
In the case of AGTTTTGG, the binding signal is reported as 0.0991 E-score.
CACTGGGA was tested, and the binding signal was 0.168 E-score.
CCTCAAGA gave a binding signal of -0.0566 E-score.
AATAGATG showed a binding signal of -0.0918 E-score.
For AAACAGGC, the binding signal was -0.157 E-score.
AGCACACC was tested, and the binding signal was 0.38 E-score.
Work on AGTTCATA yielded a binding signal of -0.129 E-score.
Sequence GTTCTTCA has a binding signal of -0.158 E-score.
AAGACTAC showed a binding signal of -0.117 E-score.
Work on AGGCGATA yielded a binding signal of -0.1 E-score.
Work on AACACTCA yielded a binding signal of 0.4 E-score.
With CTCCTCAA the binding signal was -0.147 E-score.
For TGCACCCA, the binding signal was 0.153 E-score.
AAAGGTCG gave a binding signal of -0.0879 E-score.
In the case of CTGTTGGA, the binding signal is reported as -0.233 E-score.
For AAAGGTGT, the binding signal was 0.452 E-score.
GCCAGCGC gave a binding signal of -0.181 E-score.
CATACCAG gave a binding signal of -0.104 E-score.
CCCTGCAA gave a binding signal of 0.165 E-score.
CTTGGCAC was tested, and the binding signal was -0.11 E-score.
ACTACACA showed a binding signal of 0.265 E-score.
ATAAGCAC showed a binding signal of 0.166 E-score.
In the case of CTAGCCCC, the binding signal is reported as 0.082 E-score.
AAGTGTCC gave a binding signal of 0.332 E-score.
CCTAGTTA showed a binding signal of 0.0358 E-score.
CTCCGGTA gave a binding signal of 0.161 E-score.
AGACGGAC was tested, and the binding signal was -0.113 E-score.
For AAGGCCTA, the binding signal was -0.111 E-score.
CCCCACTA showed a binding signal of 0.146 E-score.
CCCAGAGG showed a binding signal of 0.017 E-score.
In the case of GCGTGGGA, the binding signal is reported as -0.099 E-score.
ATTCCGCA showed a binding signal of -0.106 E-score.
Work on CGACATCC yielded a binding signal of 0.0314 E-score.
For GGGCGGTA, the binding signal was 0.18 E-score.
With ATCATCGA the binding signal was -0.146 E-score.
ACCTTGGG gave a binding signal of 0.0781 E-score.
For ATCATAAT, the binding signal was -0.0988 E-score.
Sequence TGCGCGCA has a binding signal of 0.22 E-score.
AGACGTAG showed a binding signal of -0.189 E-score.
For AAATTGAA, the binding signal was -0.245 E-score.
For AACGGCCT, the binding signal was -0.233 E-score.
With CTAGACAA the binding signal was -0.162 E-score.
Sequence AGGATCAG has a binding signal of 0.0228 E-score.
For ATCTTGCA, the binding signal was -0.264 E-score.
Work on GAGATGTA yielded a binding signal of 0.195 E-score.
With ACATAATC the binding signal was -0.0974 E-score.
Work on GTTTACGA yielded a binding signal of 0.0291 E-score.
AAGACAAA gave a binding signal of -0.268 E-score.
AGAAGACA gave a binding signal of 0.137 E-score.
Sequence CCACTGCG has a binding signal of -0.0314 E-score.
Sequence AACATCAG has a binding signal of -0.238 E-score.
For TTGGACAA, the binding signal was -0.0574 E-score.
CGCCTTAC showed a binding signal of 0.132 E-score.
Sequence TAGCCAAA has a binding signal of -0.146 E-score.
Work on GTGCTACA yielded a binding signal of 0.145 E-score.
In the case of AGCCTACG, the binding signal is reported as -0.175 E-score.
ATTTAAAT gave a binding signal of -0.318 E-score.
TGCCTAAA was tested, and the binding signal was -0.212 E-score.
For GTGCCAGA, the binding signal was 0.0423 E-score.
In the case of CCCTTACC, the binding signal is reported as 0.0345 E-score.
For CTGTTCAA, the binding signal was -0.152 E-score.
In the case of GGCTACGA, the binding signal is reported as 0.196 E-score.
AATCACCG gave a binding signal of -0.229 E-score.
For TCAGACAA, the binding signal was 0.105 E-score.
AGCATTAA gave a binding signal of -0.257 E-score.
ATTCGATG was tested, and the binding signal was -0.144 E-score.
AGAAGTTC gave a binding signal of -0.28 E-score.
CAAGCAAG gave a binding signal of -0.183 E-score.
Sequence ATACTAGG has a binding signal of -0.0228 E-score.
ACGTGCGG was tested, and the binding signal was 0.064 E-score.
ACCCGACA showed a binding signal of 0.325 E-score.
CCTCAATC gave a binding signal of -0.103 E-score.
CAACTGAG gave a binding signal of 0.0563 E-score.
For AAACCTTA, the binding signal was -0.206 E-score.
For ACGGAGGC, the binding signal was -0.0184 E-score.
With ATATAGCA the binding signal was 0.0197 E-score.
ACAACCTC gave a binding signal of -0.0155 E-score.
Sequence CTCCGGAG has a binding signal of 0.0557 E-score.
With CCTATGAC the binding signal was -0.1 E-score.
CGGTGCAG gave a binding signal of 0.128 E-score.
CCATTCGA was tested, and the binding signal was -0.132 E-score.
Work on GTTATTTA yielded a binding signal of 0.0334 E-score.
With ATCAAAGG the binding signal was -0.096 E-score.
With ATCGCCAA the binding signal was -0.208 E-score.
Work on AGCTAAAT yielded a binding signal of -0.263 E-score.
Sequence AATACACT has a binding signal of 0.327 E-score.
CCGGCAGC showed a binding signal of -0.0124 E-score.
GTCTCTTA showed a binding signal of -0.181 E-score.
With AACGCCTG the binding signal was -0.00924 E-score.
In the case of GACGTCGC, the binding signal is reported as -0.115 E-score.
CATATCGA was tested, and the binding signal was 0.0446 E-score.
CAGTTCGC showed a binding signal of -0.311 E-score.
ACTCGACG was tested, and the binding signal was 0.0902 E-score.
With CTTTGCCC the binding signal was -0.153 E-score.
In the case of GGATGTAC, the binding signal is reported as 0.0663 E-score.
With AAATCGCC the binding signal was -0.261 E-score.
In the case of ATCTGCTA, the binding signal is reported as -0.105 E-score.
For CACAGGCC, the binding signal was -0.0389 E-score.
TAGGGGCA was tested, and the binding signal was 0.106 E-score.
AATTGTTC showed a binding signal of -0.116 E-score.
AAGTCTCA showed a binding signal of -0.0853 E-score.
In the case of GACCTTAC, the binding signal is reported as -0.0734 E-score.
Sequence ATTTAAAA has a binding signal of -0.198 E-score.
Sequence CTGAAAGA has a binding signal of -0.0958 E-score.
Work on TCGCGTAA yielded a binding signal of -0.129 E-score.
AAGTGATT showed a binding signal of -0.192 E-score.
With CACGTGAC the binding signal was 0.258 E-score.
With GTTCGCTA the binding signal was -0.0122 E-score.
CAAAGTTG was tested, and the binding signal was -0.121 E-score.
Work on CGGCAATC yielded a binding signal of -0.128 E-score.
Work on GAAGAAAA yielded a binding signal of -0.0849 E-score.
Sequence CAGTGCGC has a binding signal of -0.0433 E-score.
AACGGAGC showed a binding signal of -0.0838 E-score.
Work on ACAAATTG yielded a binding signal of -0.039 E-score.
AGAAGCAC was tested, and the binding signal was -0.0182 E-score.
In the case of GGGGAAAA, the binding signal is reported as -0.28 E-score.
In the case of AGTCGGCA, the binding signal is reported as -0.0374 E-score.
For AACAAACA, the binding signal was 0.0308 E-score.
For GATCCTTA, the binding signal was 0.119 E-score.
Sequence ATCAGCAG has a binding signal of -0.113 E-score.
Sequence AGCATACT has a binding signal of -0.181 E-score.
TGTTTAAA showed a binding signal of 0.114 E-score.
In the case of GAGCTTAC, the binding signal is reported as -0.0995 E-score.
For AAAGAAGG, the binding signal was -0.0232 E-score.
For AATGCATC, the binding signal was -0.233 E-score.
ATTAACAA showed a binding signal of -0.0537 E-score.
CGTATTTA was tested, and the binding signal was -0.116 E-score.
With CGATTGCG the binding signal was -0.0968 E-score.
Sequence CAGAACCA has a binding signal of -0.265 E-score.
Sequence TAATTATA has a binding signal of -0.0824 E-score.
For ATTATTAG, the binding signal was -0.18 E-score.
For CCAGTATC, the binding signal was 0.0625 E-score.
AAGTGCGT showed a binding signal of -0.0669 E-score.
CGCGGCTA gave a binding signal of -0.109 E-score.
ACCCCTAG gave a binding signal of 0.208 E-score.
GTACGTAA was tested, and the binding signal was -0.0954 E-score.
In the case of CGTTCGAG, the binding signal is reported as 0.0734 E-score.
For CGGTGGTC, the binding signal was -0.0136 E-score.
CCCTCCAC showed a binding signal of -0.0105 E-score.
Sequence CCGGGCAA has a binding signal of -0.0412 E-score.
Sequence ATGACCAT has a binding signal of -0.142 E-score.
Work on AGGGATCA yielded a binding signal of 0.246 E-score.
